Laboratory results: the RNAGym collection of RNA variant scans (doi:10.7554/elife.90254)
The source gives no read counts; variants with many changes may rest on few reads.

B1: LINE1-mini (parent)
chain: GGCAGAGCUCAACACAGCGUGGCAAAGUGGCUGUGGCUAGACUGCC

Variants of: B1
Test: self-cleavage, relative activity (ratio to wild type); higher = more cleavage; in vitro, sequencing; the parent is a self-cleaving ribozyme
In the case of UACAGAGCUCAACACAGCGUGGCAACGUGGAUGUGGCUAGACUGCC [G1U G2A A26C C31A], the self-cleavage is reported as 0.06. Work on GGCAGAGCUCAUCACAGCAUGCCAAAGUGGCUGUGGCUAGACAGCC [A12U G19A G22C U43A] yielded a self-cleavage of 0.01. GGCAGAGCUCGCCACAGCGUGGCAAAGCGGCUGUGACUAGACUGCC [A11G A12C U28C G36A] showed a self-cleavage of 0.06. For GGGAGAGCUCAACACAGCGUGGUAAAGUGGCUGUGGCCAGACUACC [C3G C23U U38C G44A], the self-cleavage was 0.13. With GGCAGAGCUCAACACAGCGUGGCAAAGUGGCUGUCGCUGGACUGGC [G35C A39G C45G] the self-cleavage was 0.04. With CGCAGAGCUUAAAACAACGUGGCAAAGUGGCUGUGGCUAGGAUGCC [G1C C10U C13A G17A A41G C42A] the self-cleavage was 0.02. Variant GGCAGAGCUCAACACAGCAUGGAUAAGUGGCUGCGGCUAGACUGCC [G19A C23A A24U U34C] has a self-cleavage of 0.5. In the case of GGCAGAGCUCAACCCAGCCUGAAACAGCGGCUGUGGCAAGACUGCA [A14C G19C G22A C23A A25C U28C U38A C46A], the self-cleavage is reported as 0.08. GGCAGAGCUCAACGCAGCGAGGCAACGUGGCUGUGGCUCGACUGUG [A14G U20A A26C A39C C45U C46G] gave a self-cleavage of 0.02. GGCAGAGCUCAACAGAGCGUUGCAGAGUGGCUGUGGCUAGACCGCC [C15G G21U A25G U43C] showed a self-cleavage of 0.03. With GGCAGAGCUCAACACAGCGUGGCAAAGUGGUUGUGGCCAGACCGCC [C31U U38C U43C] the self-cleavage was 0.03. For GGCAGAGUUCAACAAAGCGUGGCAAAGGGGCUGUGGCUAGACUGCU [C8U C15A U28G C46U], the self-cleavage was 0.14. Variant GACAGAGCUCAAAACAGCUUGGCAAAGUGGCUGUUGCUAGACUGCU [G2A C13A G19U G35U C46U] has a self-cleavage of 0.31. In the case of GGCAGAGCAGAACACAGCGUGGCAAAGAGGCUGUGGCUAGACUCCC [U9A C10G U28A G44C], the self-cleavage is reported as 0.03. GGCAGAGCUCAACACAGCAUGGCAAAGUGGCUGUGGCUAUACAGCC [G19A G40U U43A] gave a self-cleavage of 0.11. For GGCAGAGCUAGACACAGGGUGGCAAAGUGGCUGUGGCUAGACUGCC [C10A A11G C18G], the self-cleavage was 0.02. Variant GGCAGAGCUCAAAACAGGGUGGCAAAGUGGCUACGGCUAGACUGCC [C13A C18G G33A U34C] has a self-cleavage of 0.04. For GACAGACCUCAACACAGUGUAGCAAAGUGGCUGUGGCUAGACUGCC [G2A G7C C18U G21A], the self-cleavage was 1.17. GGCAGAUCUCAACACAGCGUGGCAAAGUGGAUGUGGCUAGACCGCC [G7U C31A U43C] showed a self-cleavage of 0.44. In the case of GCCAGAGCUCAACGCAGCGAGGCAAAGUGGCUGUGGCUAGACUGCC [G2C A14G U20A], the self-cleavage is reported as 0.05. For GGAAGAGCUGAACACAGCGUGGCAAAGUGGCUGUGGAUAGACUGUA [C3A C10G C37A C45U C46A], the self-cleavage was 0. Variant GUCAGAGCUCAACACAACGUGGCAAAGUGGCUGUGGCUAGGCUGCC [G2U G17A A41G] has a self-cleavage of 0. GGCAGAGCACAACACAGCGUGGGAAAGUGGCCGUGGCUAGACUGCC [U9A C23G U32C] gave a self-cleavage of 0.12. With GACAGCGCUCAACACAGCGUGGCAAAGUGGCUGUGGCUAGACUCCC [G2A A6C G44C] the self-cleavage was 0.35. GGAAGAGCUCAAAAUAGCGAGGCAAAGUGUCUGUGGCUAGACUGCC [C3A C13A C15U U20A G30U] showed a self-cleavage of 0.25. GGCAUAGCUGAACAAAGCGUGGCAAAGUGGCUGUGGCUAGACUGCC [G5U C10G C15A] gave a self-cleavage of 0.02. AGCAGAUCUCAACAGAGCGUGUCAACGUGGCUGUGGCUAGACUGCC [G1A G7U C15G G22U A26C] gave a self-cleavage of 1.59. Variant GUCAGGGCUCAACACCGCGUGGCAAAGUGGCCGUGGCUAGACUGCC [G2U A6G A16C U32C] has a self-cleavage of 0.01. Work on GGCAGAGCUCAUAACAGCGUGGCAAAGUGGCUCUGGCUAGAUUGCC [A12U C13A G33C C42U] yielded a self-cleavage of 0.02. GGCAGACCUCAACACAGCUUGGCAAAGUGGUUGUGGGUAGACUGCC [G7C G19U C31U C37G] gave a self-cleavage of 0.01. Work on UGCAAGCCUCAACACAGCGUGGCAAAGUAGCUGUGGCUAGACUGCC [G1U G5A A6G G7C G29A] yielded a self-cleavage of 0.26. GGCAGAGCUAAACACAGCGUGGCGAAUUGGGGGUGGCUAGACAGCC [C10A A24G G27U C31G U32G U43A] showed a self-cleavage of 0.01. Variant CGCAAAGCUCAACCCAGCGUGGCAAAGUGGCUGAGGCUUGAAUGCC [G1C G5A A14C U34A A39U C42A] has a self-cleavage of 0. With GGCAGAGCUCAACACCGCGUGGCAAUGUUGCUGUCGCUAGCCUGCC [A16C A26U G29U G35C A41C] the self-cleavage was 0.04. In the case of GGAAGAGCUCAACACAGCGUGGCAAAGUGGCUGUGGCUAGCCUGAC [C3A A41C C45A], the self-cleavage is reported as 0.16. Variant GGCAGAGGUCAACACAGCGUGGGAAAGUGGCUUUGACUAGACUGCC [C8G C23G G33U G36A] has a self-cleavage of 0. For GGCAGAGCUCAACAUAGCGUGGCAAUGUGGCUGUGGAUAGAGUGCG [C15U A26U C37A C42G C46G], the self-cleavage was 0.04. Variant GGAAGAGCUCAACACAGCGUGGCAAAGCCGCUUUGGCUAGACUGCC [C3A U28C G29C G33U] has a self-cleavage of 0.14. In the case of GGGAGAGCUCAACACAGCUUGGCUAAGUGGCUGUGGCUAGACUGCC [C3G G19U A24U], the self-cleavage is reported as 0.1. GGCAGAGCUCAACACAGCGUGGCAAAGUGGCGGUGGCUAUACUGAC [U32G G40U C45A] gave a self-cleavage of 0.02. For GGCGGAGCUCAACACAGCGUGGCAAACUGGCUGUGACUAGAAUGCC [A4G G27C G36A C42A], the self-cleavage was 0.01. GGCAGAGAACAACACAGCGUGGCAAAGUGGCUGUGACUAGACUGCC [C8A U9A G36A] showed a self-cleavage of 0.27. Work on UGCAGAGCUCAACUCAGCGUGGCAAAGUGGCUUUGGCUAGACUGCC [G1U A14U G33U] yielded a self-cleavage of 0.02. Work on GGCAGAGCUAAAAACAGCGUGGAAAAGUGGCUGUUGCUAGACUGCC [C10A C13A C23A G35U] yielded a self-cleavage of 0.01. GUCACAGCUCAACACAGCGUGGCAAAGUGGCUGUGGCUAAACUGCA [G2U G5C G40A C46A] gave a self-cleavage of 0.02. With GACAGAGCUCAAUACAGCGUGGCAAAGUGACAGUGGCUAGACUGCC [G2A C13U G30A U32A] the self-cleavage was 0.24. In the case of GGCAGAGCUCACCACAGCGUGGCAAAGUGGCUGUGGCGAUACUGCC [A12C U38G G40U], the self-cleavage is reported as 0.01. GGCAGAGCUCAACACAUCGUGGCAAAGUGGCUGUUGAUAGACUGCC [G17U G35U C37A] showed a self-cleavage of 0. In the case of GGCAGAGCGCAACCUAGCGUGGCAAAGUGGCUGUGGCUAGUCUGCC [U9G A14C C15U A41U], the self-cleavage is reported as 0.04. With GUCAGAGCUCAACCCAGCGUGGCGAAGUGGUAGUGGGGAGACUGCC [G2U A14C A24G C31U U32A C37G U38G] the self-cleavage was 0. GUCAGAGCUCAAUACAGCGUGGCAAAGUGGCCGUGGCUAGACUGCC [G2U C13U U32C] gave a self-cleavage of 0.04. With GGUAGGGCUCAACACAGCGUCGCAAAGUGGCUGUGUGUAGACUGCC [C3U A6G G21C G36U C37G] the self-cleavage was 0. Variant GGCAGAGCUCAAAACAGCGUGGCAAAGUGGCUGUGGCCAGACUGAC [C13A U38C C45A] has a self-cleavage of 0.11. Variant GGCAGGGCUCAACACAGCGUGGUAAAGUGGCUGUGGCUAGACUCCC [A6G C23U G44C] has a self-cleavage of 0.04. GGCAGAGCUCAACACAGGGUUGAAAAGUGGCUGUGGCUAGACUGCC [C18G G21U C23A] gave a self-cleavage of 0.8. GGCAGAGCUCACCACAGCGUAGCAAAGCGGCUGUGACUAGACUGCC [A12C G21A U28C G36A] gave a self-cleavage of 0.02.
